# In all, about 2,900 compounds were measured (“NF-kB SEAP reporter activity, fold change vs agonist alone”: median about 0.99, highest 2% from about 2.6 on). This is one part of the list.
# How the values were obtained:
# RAW-Dual [1] = assay: NF-kB SEAP reporter activity, fold change vs agonist alone; cytotoxicity flag (confluency mask): not cytotoxic; higher = enhanced NF-kB activity
# Summary of the method: (§1)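 Cytotoxic wells were those whose IncuCyte confluency was below 70% of agonist controls in both mask sets. The cells were RAW-Dual macrophages at 50,000 cells/well in DMEM on 384-well plates, dosed with 50 nL of library stock by pin tool, stimulated with a PRR agonist 1 h later, and kept at 37 °C, 5% CO2 for 20 hours. IRF and NF-κB reporter activity, as fold change over agonist-alone wells, came from supernatant read by QuantiLuc luminescence and QuantiBlue absorbance, respectively.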
# RAW-Dual [2] = assay: NF-kB SEAP reporter activity, fold change vs agonist alone; higher = enhanced NF-kB activity
# Summary of the method: as §1
# RAW-Dual [3] = assay: NF-kB SEAP reporter activity, fold change vs agonist alone; cytotoxicity flag (confluency mask): cytotoxic (confluency <70% of control); higher = enhanced NF-kB activity
# Summary of the method: as §1
# [4] = agonist: ODN 1826 (TLR9) 0.5 ug/mL
# [5] = agonist: Pam2CSK4 (TLR2/6) 0.1 ug/mL
# [6] = agonist: Pam3CSK4 (TLR2/1) 0.1 ug/mL
# [7] = library stock concentration (final ~1000-fold dilution): 10 mM, cytotoxicity flag (confluency mask): not cytotoxic, agonist: MPLA (TLR4) […]
# [8] = library stock concentration (final ~1000-fold dilution): 10 mM, cytotoxicity flag (confluency mask): not cytotoxic, agonist: Imiquimod (TLR7) […]
# [9] = library stock concentration (final ~1000-fold dilution): 10 mM, cytotoxicity flag (confluency mask): cytotoxic (confluency <70% of control), agonist: Imiquimod (TLR7) […]
# [10] = library stock concentration (final ~1000-fold dilution): 10 mM, cytotoxicity flag (confluency mask): cytotoxic (confluency <70% of control), agonist: MPLA (TLR4) […]
smiles,measurement,setting,value
O=c1ccc2cc3ccoc3cc2o1 (library stock concentration (final ~1000-fold dilution): 10 mM),NF-kB SEAP reporter activity,RAW-Dual [1]; agonist: LPS (TLR4) 0.1 ug/mL,1.05
same,NF-kB SEAP reporter activity,RAW-Dual [1]; [4],0.986
same,NF-kB SEAP reporter activity,RAW-Dual [1]; [5],1.12
same,NF-kB SEAP reporter activity,RAW-Dual [1]; [6],1.19
O=c1ccc2cc3ccoc3cc2o1,NF-kB SEAP reporter activity,RAW-Dual [2]; [7],1.15
O=C(Nc1cccc(C(F)(F)F)c1)c1cccc2cc(Oc3cc(CO)ncn3)ccc12,NF-kB SEAP reporter activity,RAW-Dual [2]; [8],0.543
same,NF-kB SEAP reporter activity,RAW-Dual [2]; [7],0.55
O=C(Nc1cccc(C(F)(F)F)c1)c1cccc2cc(Oc3cc(CO)ncn3)ccc12 (library stock concentration (final ~1000-fold dilution): 10 mM),NF-kB SEAP reporter activity,RAW-Dual [1]; agonist: LPS (TLR4) 0.1 ug/mL,0.557
same,NF-kB SEAP reporter activity,RAW-Dual [1]; [4],0.378
same,NF-kB SEAP reporter activity,RAW-Dual [1]; [5],0.216
same,NF-kB SEAP reporter activity,RAW-Dual [1]; [6],0.25
CN(CC(=O)N(Cc1ccc(C2CCCCC2)cc1)c1ccc(C(=O)O)c(O)c1)S(=O)(=O)c1c(F)c(F)c(F)c(F)c1F (library stock concentration (final ~1000-fold dilution): 10 mM),NF-kB SEAP reporter activity,RAW-Dual [1]; agonist: LPS (TLR4) 0.1 ug/mL,0.25
same,NF-kB SEAP reporter activity,RAW-Dual [1]; [4],0.547
same,NF-kB SEAP reporter activity,RAW-Dual [1]; [5],1.09
same,NF-kB SEAP reporter activity,RAW-Dual [1]; [6],0.775
CN(CC(=O)N(Cc1ccc(C2CCCCC2)cc1)c1ccc(C(=O)O)c(O)c1)S(=O)(=O)c1c(F)c(F)c(F)c(F)c1F,NF-kB SEAP reporter activity,RAW-Dual [2]; [8],0.642
same,NF-kB SEAP reporter activity,RAW-Dual [2]; [7],0.778
NC(N)=NCCCC(N)C(=O)NC(CCCN=C(N)N)C(=O)N1CCCC1C(=O)N1CC(O)CC1C(=O)NCC(=O)NC(Cc1cccs1)C(=O)NC(CO)C(=O)N1Cc2ccccc2CC1C(=O)N1C(C(=O)NC(CCCN=C(N)N)C(=O)O)CC2CCCCC21 (stereo not drawn),NF-kB SEAP reporter activity,"RAW-Dual [2]; library stock concentration (final ~1000-fold dilution): 2 mM water, cytotoxicity flag (confluency mask): not cytotoxic, agonist: Imiquimod (TLR7) […]",0.945
same,NF-kB SEAP reporter activity,"RAW-Dual [2]; library stock concentration (final ~1000-fold dilution): 2 mM water, cytotoxicity flag (confluency mask): not cytotoxic, agonist: MPLA (TLR4) […]",1.05
NC(N)=NCCCC(N)C(=O)NC(CCCN=C(N)N)C(=O)N1CCCC1C(=O)N1CC(O)CC1C(=O)NCC(=O)NC(Cc1cccs1)C(=O)NC(CO)C(=O)N1Cc2ccccc2CC1C(=O)N1C(C(=O)NC(CCCN=C(N)N)C(=O)O)CC2CCCCC21 (stereo not drawn) (library stock concentration (final ~1000-fold dilution): 2 mM water),NF-kB SEAP reporter activity,RAW-Dual [1]; agonist: LPS (TLR4) 0.1 ug/mL,0.985
same,NF-kB SEAP reporter activity,RAW-Dual [1]; [4],1.06
same,NF-kB SEAP reporter activity,RAW-Dual [1]; [5],1.1
same,NF-kB SEAP reporter activity,RAW-Dual [1]; [6],0.962
CN(C)CCN(Cc1ccc(Cl)cc1)c1ccccn1.Cl (library stock concentration (final ~1000-fold dilution): 10 mM),NF-kB SEAP reporter activity,RAW-Dual [1]; agonist: LPS (TLR4) 0.1 ug/mL,1.15
same,NF-kB SEAP reporter activity,RAW-Dual [1]; [4],0.683
same,NF-kB SEAP reporter activity,RAW-Dual [1]; [5],0.912
same,NF-kB SEAP reporter activity,RAW-Dual [1]; [6],1.21
CN(C)CCN(Cc1ccc(Cl)cc1)c1ccccn1.Cl,NF-kB SEAP reporter activity,RAW-Dual [2]; [8],1.45
same,NF-kB SEAP reporter activity,RAW-Dual [2]; [7],0.986
CC(C)=CCc1c(-c2ccc(O)cc2O)oc2c3c(cc(O)c2c1=O)OC(C)(C)C=C3 (library stock concentration (final ~1000-fold dilution): 10 mM),NF-kB SEAP reporter activity,RAW-Dual [3]; agonist: LPS (TLR4) 0.1 ug/mL,0.535
same,NF-kB SEAP reporter activity,RAW-Dual [3]; [4],0.487
same,NF-kB SEAP reporter activity,RAW-Dual [3]; [5],0.216
same,NF-kB SEAP reporter activity,RAW-Dual [3]; [6],0.248
CC(C)=CCc1c(-c2ccc(O)cc2O)oc2c3c(cc(O)c2c1=O)OC(C)(C)C=C3,NF-kB SEAP reporter activity,RAW-Dual [2]; [9],0.77
same,NF-kB SEAP reporter activity,RAW-Dual [2]; [10],0.843
O=C(Nc1ccc(O)c(C(=O)O)c1)c1cccc(NC(=O)c2ccco2)c1,NF-kB SEAP reporter activity,RAW-Dual [2]; [8],0.942
same,NF-kB SEAP reporter activity,RAW-Dual [2]; [7],0.969
O=C(Nc1ccc(O)c(C(=O)O)c1)c1cccc(NC(=O)c2ccco2)c1 (library stock concentration (final ~1000-fold dilution): 10 mM),NF-kB SEAP reporter activity,RAW-Dual [1]; agonist: LPS (TLR4) 0.1 ug/mL,0.971
same,NF-kB SEAP reporter activity,RAW-Dual [1]; [4],0.895
same,NF-kB SEAP reporter activity,RAW-Dual [1]; [5],1.05
same,NF-kB SEAP reporter activity,RAW-Dual [1]; [6],1.06
c1ccc(-c2n[nH]cc2-c2ccnc3ccccc23)nc1,NF-kB SEAP reporter activity,"RAW-Dual [2]; library stock concentration (final ~1000-fold dilution): 2 mM, cytotoxicity flag (confluency mask): not cytotoxic, agonist: Imiquimod (TLR7) […]",0.961
same,NF-kB SEAP reporter activity,"RAW-Dual [2]; library stock concentration (final ~1000-fold dilution): 2 mM, cytotoxicity flag (confluency mask): not cytotoxic, agonist: MPLA (TLR4) […]",1.15
c1ccc(-c2n[nH]cc2-c2ccnc3ccccc23)nc1 (library stock concentration (final ~1000-fold dilution): 2 mM),NF-kB SEAP reporter activity,RAW-Dual [1]; agonist: LPS (TLR4) 0.1 ug/mL,2.19
same,NF-kB SEAP reporter activity,RAW-Dual [1]; [4],1.01
same,NF-kB SEAP reporter activity,RAW-Dual [1]; [5],0.992
same,NF-kB SEAP reporter activity,RAW-Dual [1]; [6],0.919
CC(=O)Nc1ccc(C(=O)Nc2ccccc2N)cc1 (library stock concentration (final ~1000-fold dilution): 10 mM),NF-kB SEAP reporter activity,RAW-Dual [1]; agonist: LPS (TLR4) 0.1 ug/mL,2.28
same,NF-kB SEAP reporter activity,RAW-Dual [1]; [4],2.86
same,NF-kB SEAP reporter activity,RAW-Dual [1]; [5],0.724
same,NF-kB SEAP reporter activity,RAW-Dual [1]; [6],0.832
CC(=O)Nc1ccc(C(=O)Nc2ccccc2N)cc1,NF-kB SEAP reporter activity,RAW-Dual [2]; [8],2.21
same,NF-kB SEAP reporter activity,RAW-Dual [2]; [7],1.74
COc1cc2c(Nc3ccc(NC(=O)c4ccccc4)cc3)ncnc2cc1OCCCN1CCOCC1 (library stock concentration (final ~1000-fold dilution): 10 mM),NF-kB SEAP reporter activity,RAW-Dual [1]; agonist: LPS (TLR4) 0.1 ug/mL,0.931
same,NF-kB SEAP reporter activity,RAW-Dual [1]; [4],0.193
same,NF-kB SEAP reporter activity,RAW-Dual [1]; [5],1.23
same,NF-kB SEAP reporter activity,RAW-Dual [1]; [6],1.27
COc1cc2c(Nc3ccc(NC(=O)c4ccccc4)cc3)ncnc2cc1OCCCN1CCOCC1,NF-kB SEAP reporter activity,RAW-Dual [2]; [8],1.03
same,NF-kB SEAP reporter activity,RAW-Dual [2]; [7],0.862
CC(C)(C)C(O)/C(=C\c1ccc(Cl)cc1)n1cncn1 (stereo not drawn),NF-kB SEAP reporter activity,RAW-Dual [2]; [8],1.32
same,NF-kB SEAP reporter activity,RAW-Dual [2]; [7],0.988
CC(C)(C)C(O)/C(=C\c1ccc(Cl)cc1)n1cncn1 (stereo not drawn) (library stock concentration (final ~1000-fold dilution): 10 mM),NF-kB SEAP reporter activity,RAW-Dual [1]; agonist: LPS (TLR4) 0.1 ug/mL,1.52
same,NF-kB SEAP reporter activity,RAW-Dual [1]; [4],1.05
same,NF-kB SEAP reporter activity,RAW-Dual [1]; [5],1.2
same,NF-kB SEAP reporter activity,RAW-Dual [1]; [6],1.39
CCn1c2ccccc2c2cc(CNCc3ccccc3OC)ccc21.Cl (library stock concentration (final ~1000-fold dilution): 10 mM),NF-kB SEAP reporter activity,RAW-Dual [3]; agonist: LPS (TLR4) 0.1 ug/mL,1.06
same,NF-kB SEAP reporter activity,RAW-Dual [3]; [4],0.394
same,NF-kB SEAP reporter activity,RAW-Dual [3]; [5],0.659
same,NF-kB SEAP reporter activity,RAW-Dual [3]; [6],0.641
CCn1c2ccccc2c2cc(CNCc3ccccc3OC)ccc21.Cl,NF-kB SEAP reporter activity,RAW-Dual [2]; [9],1.22
same,NF-kB SEAP reporter activity,RAW-Dual [2]; [10],1.37
Cl.O=c1[nH]c(C2CCCN2)nc2c1oc1ccc(Cl)cc12 (stereo not drawn),NF-kB SEAP reporter activity,"RAW-Dual [2]; library stock concentration (final ~1000-fold dilution): 10 mM water, cytotoxicity flag (confluency mask): not cytotoxic, agonist: Imiquimod (TLR7) […]",0.732
same,NF-kB SEAP reporter activity,"RAW-Dual [2]; library stock concentration (final ~1000-fold dilution): 10 mM water, cytotoxicity flag (confluency mask): not cytotoxic, agonist: MPLA (TLR4) […]",1.18

# From the supplement of paper PMC10037445
